Measured values published in PMC6212790.
The list shows a part of the results. At the low end of the ranking, values are background and their order means little.
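Note: rank score from −0.5 (least bound) to 0.5 (best bound).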

These sequences were tested against T1, GST-Rok-C97-191 (UniProt O34857) (assay: protein binding microarray). Conditions: Rok is a gene silencer of Bacillus subtilis; high values mean tight binding; most listed sequences are background and not binding sites; double strand, one strand shown.
T1 sequence: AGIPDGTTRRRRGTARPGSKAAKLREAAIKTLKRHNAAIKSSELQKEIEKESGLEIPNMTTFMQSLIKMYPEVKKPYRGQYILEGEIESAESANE
Sequence GGGCCATA has a binding signal of 0.018 E-score. With TGCAGCAA the binding signal was -0.041 E-score. GCGCAGCC showed a binding signal of -0.254 E-score. Sequence CTCTAGGC has a binding signal of -0.195 E-score. Sequence AGAACAGG has a binding signal of -0.145 E-score. Sequence CGCAGCCG has a binding signal of -0.258 E-score. Work on AGTGAACG yielded a binding signal of 0.0155 E-score. With GAGCAACC the binding signal was -0.269 E-score. Sequence CGGCTAGA has a binding signal of -0.0456 E-score. Work on TACATTGA yielded a binding signal of 0.175 E-score. In the case of CGGTTTCC, the binding signal was -0.231 E-score. For ACGCACGG, the binding signal was -0.107 E-score. For AACATATG, the binding signal was 0.211 E-score. AAGGGATG gave a binding signal of -0.139 E-score. With CGTAAGAG the binding signal was 0.0647 E-score. For CCTTATCG, the binding signal was -0.0859 E-score. In the case of CGGTGTCA, the binding signal was -0.209 E-score. For CGCGAGCA, the binding signal was -0.0866 E-score. In the case of ACAAGGAA, the binding signal was -0.0104 E-score. TATCCCGA was tested, and the binding signal was 0.0408 E-score. ACCCTCAG showed a binding signal of -0.181 E-score. Sequence CTGCAAAC has a binding signal of -0.272 E-score. In the case of GAAGGGAA, the binding signal was -0.124 E-score. Work on AGTTCAGA yielded a binding signal of -0.0377 E-score. CGAGGGAG showed a binding signal of -0.272 E-score. Work on ACGTAGCT yielded a binding signal of 0.18 E-score. TCGGATCA showed a binding signal of 0.091 E-score. With GAATCTAC the binding signal was 0.423 E-score. AGCGTTCG was tested, and the binding signal was -0.232 E-score. With AGCCTCGA the binding signal was -0.196 E-score. For ATTTAAGC, the binding signal was 0.0377 E-score. Sequence CGCGTCCG has a binding signal of -0.292 E-score. With GCACATAA the binding signal was 0.00596 E-score. CAAATCCG gave a binding signal of 0.0185 E-score. CATCACAC was tested, and the binding signal was -0.085 E-score. GTGGCCTA was tested, and the binding signal was -0.0368 E-score. ATTGCCAA gave a binding signal of 0.0228 E-score. Sequence ATAAGCCA has a binding signal of 0.0805 E-score. Sequence CAGAAATA has a binding signal of 0.254 E-score. With CATGTGCA the binding signal was -0.0855 E-score. Sequence GGTTTGAA has a binding signal of -0.121 E-score. TCACTGAA gave a binding signal of -0.0863 E-score. With GGAGCCCA the binding signal was -0.307 E-score. In the case of AGTTACAG, the binding signal was 0.193 E-score. Work on ATCGTCAT yielded a binding signal of -0.0298 E-score. For CGTCGAAC, the binding signal was -0.122 E-score. Sequence GCGGAACA has a binding signal of -0.0136 E-score. Work on GCAGTACC yielded a binding signal of -0.183 E-score. In the case of GCACTAAC, the binding signal was -0.05 E-score. CACGAGGA was tested, and the binding signal was -0.341 E-score. Sequence TAATGGTA has a binding signal of 0.325 E-score. Sequence CGCTTACG has a binding signal of -0.032 E-score. TAACAGAA was tested, and the binding signal was 0.153 E-score. In the case of AGTAGGAA, the binding signal was 0.186 E-score. With CGTCCGGA the binding signal was 0.00304 E-score. Work on AGGTCAGG yielded a binding signal of -0.156 E-score. With CACAGTAG the binding signal was 0.0897 E-score. GAAGCTGA showed a binding signal of 0.014 E-score. For AGAGGGTA, the binding signal was -0.0234 E-score. Work on AATCGCCC yielded a binding signal of -0.144 E-score. With AACTGTGT the binding signal was 0.0986 E-score. AACGATCA was tested, and the binding signal was -0.0485 E-score. CAAGTGCG showed a binding signal of 0.0974 E-score. With ACTGAACC the binding signal was 0.0652 E-score. AAGGGGAT gave a binding signal of -0.304 E-score. CTTGCTGC was tested, and the binding signal was -0.151 E-score. For AGAGATAT, the binding signal was 0.233 E-score. CTTAAGAA gave a binding signal of 0.0573 E-score. Work on CCTCCCAA yielded a binding signal of -0.192 E-score. TAAGCGGA showed a binding signal of 0.00666 E-score. CTGTTGCC gave a binding signal of -0.201 E-score. For AATCTGTA, the binding signal was 0.291 E-score. ATATCCAG was tested, and the binding signal was -0.000629 E-score. Sequence GGAAAACA has a binding signal of -0.00212 E-score. ATTCTGTC showed a binding signal of 0.0202 E-score. With AAGCTTTA the binding signal was 0.146 E-score. Work on CGGCTTTA yielded a binding signal of -0.113 E-score. In the case of CGTGTAAC, the binding signal was 0.0552 E-score. Work on ACGCGGCG yielded a binding signal of -0.268 E-score. For ATCGGTGC, the binding signal was -0.157 E-score. With GAATGTGA the binding signal was 0.0339 E-score. CGGAAAGA was tested, and the binding signal was -0.135 E-score. AGGGAGGA showed a binding signal of -0.0242 E-score. GTCGAAAC was tested, and the binding signal was -0.125 E-score. With CGGTACGC the binding signal was -0.0834 E-score. In the case of GATATACA, the binding signal was 0.175 E-score. AGGTGCAG gave a binding signal of -0.15 E-score. With GAGGATTA the binding signal was 0.0606 E-score. For CAAGCGTG, the binding signal was -0.0896 E-score. Work on AACTTCCA yielded a binding signal of 0.0107 E-score. ATGAGTGG gave a binding signal of -0.194 E-score. CGGTTTAG showed a binding signal of -0.129 E-score. In the case of CCACTCGG, the binding signal was -0.094 E-score. Work on CAAGGATA yielded a binding signal of 0.00112 E-score. CTTAGTAA gave a binding signal of 0.202 E-score. Sequence GGAAGTCA has a binding signal of -0.092 E-score. For CTCGTGCC, the binding signal was -0.131 E-score. With AGAATCTA the binding signal was 0.322 E-score. CCCCGTAA gave a binding signal of -0.0525 E-score. For GTTGGTAA, the binding signal was 0.0565 E-score. For AAGCTTAT, the binding signal was 0.0924 E-score. In the case of CGTAAAAG, the binding signal was 0.107 E-score. Sequence GACGCTCA has a binding signal of -0.222 E-score. AAAAAGAG gave a binding signal of -0.0136 E-score. Work on CGGATGAC yielded a binding signal of -0.049 E-score. For ATTTGCGA, the binding signal was 0.173 E-score. For TCGGCGAA, the binding signal was 0.043 E-score. Sequence ACAGAAGG has a binding signal of -0.137 E-score. For ATACATAT, the binding signal was 0.377 E-score. Work on CGAACTCG yielded a binding signal of 0.0971 E-score. ATAATCAG was tested, and the binding signal was 0.0197 E-score. Sequence ACTTAGTC has a binding signal of 0.0416 E-score. With AGGTGGTG the binding signal was 0.0311 E-score. Work on AACTATAG yielded a binding signal of 0.327 E-score. Sequence AGTGGCGC has a binding signal of -0.193 E-score. CAGATTAA was tested, and the binding signal was -0.0932 E-score. GTGGCCAA was tested, and the binding signal was -0.106 E-score. ATACCCAG showed a binding signal of 0.0683 E-score. Work on AGGTACGA yielded a binding signal of 0.0629 E-score. For AAAGGAAA, the binding signal was -0.292 E-score. Work on CATAATCC yielded a binding signal of 0.109 E-score. ACGGCACG gave a binding signal of -0.211 E-score. With ATCCCCAA the binding signal was -0.034 E-score. ACATGCAT was tested, and the binding signal was 0.271 E-score. Sequence ACGGCAAC has a binding signal of -0.0874 E-score. For CCTTCGAC, the binding signal was -0.0957 E-score. AGCGTCGC gave a binding signal of -0.0651 E-score. AGAGAGTA showed a binding signal of -0.0647 E-score. In the case of GGGTGGAA, the binding signal was -0.291 E-score. For CCACCCAA, the binding signal was -0.261 E-score. Work on ACGACTGG yielded a binding signal of -0.0742 E-score. In the case of CGCGCGGA, the binding signal was -0.126 E-score. Sequence AAATTTCT has a binding signal of 0.203 E-score. Work on CCCTTTAG yielded a binding signal of -0.173 E-score. Sequence CATAATGG has a binding signal of 0.056 E-score. For AGCCGTTC, the binding signal was -0.05 E-score. AAGCCACA showed a binding signal of -0.104 E-score. For AACAGTCT, the binding signal was -0.162 E-score. GCCTATTA gave a binding signal of 0.01 E-score. In the case of CGTACGTC, the binding signal was 0.022 E-score. In the case of GACTGCTA, the binding signal was 0.0595 E-score. ATGCTGAA was tested, and the binding signal was 0.0556 E-score. In the case of CAGCATAG, the binding signal was -0.177 E-score. CAGTGGAA gave a binding signal of 0.0634 E-score. For GAAGCACA, the binding signal was 0.00459 E-score. In the case of AGTGCGCA, the binding signal was 0.0823 E-score. GGAGATAC showed a binding signal of 0.0834 E-score. CGGGACAG showed a binding signal of -0.112 E-score. GGCTTGTA showed a binding signal of -0.0701 E-score. ATGTTTGG showed a binding signal of 0.0767 E-score. For TGCGAACA, the binding signal was -0.0915 E-score. Work on ATATCCGA yielded a binding signal of 0.247 E-score. Work on AAACAAAG yielded a binding signal of 0.137 E-score. For CTTAAGGC, the binding signal was -0.0424 E-score. Sequence ATAACCTG has a binding signal of 0.119 E-score. GTGAGCAC showed a binding signal of -0.232 E-score. CGCCATAC showed a binding signal of -0.0217 E-score. AGACCGAG was tested, and the binding signal was -0.161 E-score. Sequence GACATTTA has a binding signal of 0.0325 E-score. Work on GTGGGAAA yielded a binding signal of -0.137 E-score. ATATGGAG was tested, and the binding signal was 0.0982 E-score. For ACATTTAT, the binding signal was 0.162 E-score. For CAGTAAGA, the binding signal was 0.146 E-score. With CCCGAGTC the binding signal was -0.256 E-score. With GCGTCAAC the binding signal was -0.19 E-score. CTCCTCAC was tested, and the binding signal was -0.215 E-score. AGTTGTCC gave a binding signal of 0.112 E-score. GGTGTTGA gave a binding signal of 0.0774 E-score. GTGCGCGA showed a binding signal of -0.106 E-score. CGCCAGCG showed a binding signal of -0.123 E-score. Sequence ATGGTAGA has a binding signal of 0.448 E-score. ACGCATCG showed a binding signal of -0.204 E-score.
